# According to PubChem BioAssay AID463173 (ICCB-Longwood Screening Facility, Harvard Medical School, 2010):
# Among all 52,000 compounds or so, about 1,700 (3.3%) were called active. No stated cut-off is given here; in the data, active means survival mostly below about 52% (no sharp cut-off); inactive means mostly above about 56%. This is one part of the list.
# System: Wild type
# Test: S. aureus survival, RN4220 and DeltatarO strains – OD600, teichoic acid synthesis inhibitors, primary screen (AID 463173)
# Conditions: S. aureus RN4220 wild type/DeltatarO growth, OD600, 18 h, active compounds read low, screened at 18.75 µg/mL (by protocol)
row,SMILES,survival
1,CC(C)c1nn2c(=O)cc(COC(=O)c3ccc(NC(=O)COc4ccccc4)cc3)nc2s1,inactive: 68%
2,CN(C)S(=O)(=O)N1CCNCC1,inactive: 114%
3,O=S(=O)(c1ccc(-c2cc(C(F)(F)F)on2)s1)N1CCN(c2ccccc2F)CC1,inactive: 87%
4,COc1ccc(NC(=O)CN2C(=O)CCn3nc(-c4cccn4C)cc32)cc1Cl,inactive: 51%
5,CCOC(=O)c1sc2cccc(F)c2c1S(=O)(=O)NCc1ccccc1Cl,inactive: 130%
6,O=C(CS(=O)(=O)c1cccc2nsnc12)N1CCN(c2cccc(Cl)c2)CC1,inactive: 143%
7,COc1ccc(-c2cc(-c3ccccc3)c(C#N)c(SCC(O)CS(=O)(=O)Cc3ccc(Cl)cc3)n2)cc1 (centres undefined),inactive: 141%
8,CCCN1CCN(c2ncnc3sc(C(=O)Nc4ccc(C(C)C)cc4)c(C)c23)CC1,inactive: 69%
9,[O-][n+]1onc(-c2ccccc2)c1-c1ccccc1,inactive: 109%
10,COC(=O)c1ccccc1NC(=O)c1cc(-c2ccccc2O)no1,inactive: 110%
11,CC(=O)Nc1nonc1-c1nnc(SCC(=O)Nc2ccc(C)cc2)n1-c1ccccc1,inactive: 61%
12,Cc1ccc(N(CC(=O)NCCc2ccc(Cl)cc2)S(=O)(=O)c2c(C)noc2C)cc1,inactive: 120%
13,Cc1ccc(C(c2sc3nc(-c4ccco4)nn3c2O)N2CCCC2)cc1 (centres undefined),inactive: 75%
14,COc1cccc(N2CCN(C(=O)c3ccc(C)c(NC(=O)c4nsc5ccccc45)c3)CC2)c1,inactive: 72%
15,CCN(CC)Cc1c(C(C)(C)C)oc(C)c1C(=O)O,inactive: 109%
16,Cc1ccc(NC(=O)CN2C(=O)c3ccccc3Sc3ccc(C(=O)N4CCOCC4)cc32)cc1F,inactive: 85%
17,Cc1cccc(NC(=O)Cn2nnc(-c3nc(-c4ccncc4)no3)c2N)c1,inactive: 100%
18,COc1ccc(CN2CCc3c(c(=O)n4ncc(C(=O)N5CCN(c6ccccc6OC)CC5)c4n3C)C2)cc1,inactive: 69%
19,Cc1ccc(N2CCN(C(=O)c3nn(C)c4c3CS(=O)(=O)c3ccccc3-4)CC2)c(C)c1,inactive: 81%
20,CCc1ccc2nc(N(Cc3cccnc3)C(=O)c3ccc(C#N)cc3)sc2c1,inactive: 73%
21,CCCCC(=O)Nc1ccc2nc(SCC(=O)N3CCc4ccccc43)sc2c1,inactive: 103%
22,CC(=O)Nc1ccc(NC(=O)c2oc3c(c2C)-c2nn(Cc4ccccc4Cl)cc2CC3)cc1,inactive: 88%
23,O=C(CCn1c(=O)c2sccc2n(Cc2ccccc2F)c1=O)NCc1ccc2c(c1)OCO2,inactive: 90%

row,SMILES,survival
1,CCOC(=O)c1ccc(NC(=O)Cn2nc3c4ccccc4n(Cc4cccc(F)c4)cc-3c2=O)cc1,inactive: 99%
2,CCOC(=O)N1CCc2c(sc3c2c(=O)n(Cc2ccccc2)c(=O)n3CC(=O)Nc2cccc(CC)c2)C1,inactive: 90%
3,CCOc1ccc(-n2cc(-c3ccccc3)c3c(NCCc4ccccc4)ncnc32)cc1,inactive: 74%
4,Cc1cccc(NC(=O)Cn2nc(-c3ccccc3)c3cnc4ccccc4c32)c1,inactive: 90%
5,CCc1cccc(NC(=O)CCn2c(=O)c3cccn3c3cccnc32)c1,inactive: 89%
6,Cc1ccc(Nc2ccc3cc(S(=O)(=O)N4CCC(C)CC4)ccc3n2)c(Cl)c1,inactive: 79%
7,O=C(NCCc1ccccc1)c1ccc(CS(=O)Cc2ccc(Cl)cc2)o1 (centres undefined),inactive: 80%
8,COc1ccc(C(=O)c2c(N)c(-c3nc(-c4ccc5c(c4)OCO5)cs3)c3ccccn23)cc1,inactive: 122%
9,O=C(CCNS(=O)(=O)c1ccc2c(c1)CCCC(=O)N2)Nc1cccc(Cl)c1,inactive: 75%
10,Cc1cc(NC(=O)CCc2nc3cccnc3n2-c2ccccc2)ccc1Br,inactive: 59%
11,COC(=O)Cn1c(C2CC(=O)N(c3c(C)cccc3C)C2)nc2ccccc21 (centres undefined),inactive: 81%
12,O=S(=O)(c1ccc(C2CCCCC2)cc1)N1CCN(c2ccc(Cl)c(Cl)c2)CC1,inactive: 75%
13,O=C(Cn1nnc(-c2ccncc2)n1)N(C1CCCCC1)C1CCCCC1,inactive: 98%
14,Nn1c(SCCC(=O)O)nnc1-c1ccccc1,inactive: 116%
15,O=C(Nc1ccc(F)cc1F)C1CCN(c2ncccn2)CC1,inactive: 86%
16,CCC(c1nnnn1C1CCCC1)N1CCN(Cc2ccccc2)CC1 (centres undefined),inactive: 104%
17,Cc1ccc(C)c(N2CCN(c3ncnc4c3nc3n4CCCC3)CC2)c1,inactive: 128%
18,Cc1ccccc1NC(=O)Cn1cc(C(=O)c2ccco2)c2ccccc21,inactive: 65%
19,Cn1c(=O)c2nc(SCC(=O)Nc3ccc(OC(F)(F)F)cc3)n(C)c2n(C)c1=O,inactive: 59%
20,COc1ccc(CC(=O)Nc2c(C(=O)N3CCN(c4ccccc4)CC3)oc3ccccc23)cc1OC,inactive: 76%
21,Cc1cccc(Cn2cc(S(=O)(=O)c3cccc(Cl)c3)c(=O)c3cc(F)c(N4CCOCC4)cc32)c1,inactive: 100%
22,CCOC(=O)c1c(C)[nH]c(C)c1S(=O)(=O)N(C)CC(=O)Nc1ccc(OC)cc1,inactive: 68%
23,O=C1OCC2=C1C(c1cccc(Cl)c1)CC(=O)N2c1ccc(C(F)(F)F)cc1 (centres undefined),inactive: 70%

row,SMILES,survival
1,CCOc1ccccc1NC(=O)C1CCN(S(=O)(=O)c2c(C)noc2/C=C/c2ccco2)CC1,inactive: 83%
2,Cc1ccnc(NCc2cccc3ccccc23)c1,inactive: 115%
3,COc1ccc(-c2nc(CNC(=O)NC3CCCCC3)c(C)o2)cc1,inactive: 126%
4,COc1cc(C(CC(=O)Nc2ccc(C)c(F)c2)N2Cc3ccccc3C2=O)cc(OC)c1OC (centres undefined),inactive: 66%
5,CCN(CC)c1ncnc2c1cnn2-c1cc(Cl)ccc1C,active: -6%
6,O=C(CCn1c(=O)c2ccccc2n(CC(=O)Nc2cccc(F)c2)c1=O)NCCc1ccccc1,inactive: 73%
7,COc1ccc(OC)c(CNC(=O)c2ccc(N3Cc4ccccc4Oc4ncccc43)s2)c1,inactive: 99%
8,COc1cc(OC)cc(-c2cc3nc(C)c(CCC(=O)NCCc4cccc(C)c4)c(C)n3n2)c1,inactive: 92%
9,COc1cc(NC(=O)Cn2nc(C(F)(F)F)c3c2CCC3)cc(OC)c1OC,inactive: 131%
10,CC1CCCN(CCCNC(=O)c2cc(Sc3ccc(F)cc3)nc3ccccc23)C1 (centres undefined),active: 14%
11,N#Cc1c2c(c(-c3ccccc3)[nH]c1=S)CCCC2,inactive: 94%
12,Cc1noc(-c2ccc(-c3noc(-c4ccc(F)cc4)n3)cc2)n1,inactive: 64%
13,COC(=O)/C(C#N)=C/c1ccc(OC)cc1,inactive: 105%
14,COc1cc(C2Nc3ccccc3-c3cc(C)nn32)ccc1O (centres undefined),inactive: 139%
15,Cc1ccc(NC(=O)Cn2nc(-c3ccccc3)nc(Cc3ccc(Cl)cc3)c2=O)cc1,inactive: 70%
16,O=C(CCCn1c2ccccc2c(=O)c2ccccc21)Nc1cccc(Cl)c1,inactive: 37%
17,CCOC(=O)c1cccc(NC(=O)CCSCCc2ccccn2)c1,inactive: 68%
18,COc1cccc(CNC(=O)c2cc3c(-c4ccccc4F)nn(C)c3s2)c1,inactive: 70%
19,O=S(=O)(c1ccc(Br)s1)N1CCN(c2cccc(C(F)(F)F)c2)CC1,inactive: 64%
20,Cc1csc2nc(COC(=O)c3ccccc3NC(=O)c3cccc(Br)c3)cc(=O)n12,inactive: 76%
21,COCC(C)NCc1ccc(SC)cc1 (centres undefined),inactive: 113%
22,O=C(NCCc1ccc(Cl)cc1)c1c2c(nc3ccccc13)C(=O)N(C1CCCCC1)C2,inactive: 81%
23,O=C(NC1CCN(C(=O)Nc2ccccc2C(F)(F)F)CC1)c1ccco1,inactive: 105%

row,SMILES,survival
1,COCCn1c(SCC(=O)Nc2cc(Cl)ccc2OC)nc2c([nH]c3ccccc32)c1=O,inactive: 132%
2,COc1ccc(CNC(=O)CCNS(=O)(=O)c2ccc3c(c2)oc(=O)n3C)cc1,inactive: 89%
3,CCCCCCn1nnc2sc(-c3ccccc3)cc2c1=O,inactive: 113%
4,CC1CCN(CC2CCN(C(=O)NCc3ccccc3)CC2)CC1,inactive: 69%
5,CCC1CN(C(=O)Nc2ccccc2F)c2cc(C)ccc2O1 (centres undefined),inactive: 77%
6,CCOc1ccc(-c2nc(Cn3c(=O)cc(C)c4c(C)nn(-c5ccccc5)c43)c(C)o2)cc1,active: 14%
7,Cc1ccccc1C(=O)Nc1cc(C)c(O)c(-c2nc3ccccc3o2)c1,inactive: 75%
8,COc1cc(C)ccc1OCCSc1nc2ccc(NC(=O)c3ccco3)cc2s1,inactive: 78%
9,CCN1c2ccccc2-c2nc(SCC(=O)Nc3cccc(C)c3C)ncc2S1(=O)=O,inactive: 78%
10,CCn1cc(C(=O)N(C)Cc2ccccc2)c(=O)c2cc(S(=O)(=O)N3CCc4ccccc4C3)ccc21,inactive: 72%
11,COc1ccc(C2CC(=O)c3cc(-c4nc(-c5cccc([N+](=O)[O-])c5)cs4)c(=O)n(-c4ccccc4)c3C2)cc1 (centres undefined),inactive: 72%
12,O=C(NCCc1ccccc1)c1ccc2c(c1)N(Cc1ccc(Cl)cc1)C(=O)CS2,inactive: 175%
13,Cc1nn(C)c(C)c1S(=O)(=O)N(CC(=O)NCCc1ccccc1)c1ccc(C(C)C)cc1,inactive: 86%
14,COc1cccc(C(=O)NCC2OCCc3ccccc32)c1 (centres undefined),inactive: 70%
15,CCc1ccc(NC(=O)CSc2ccnc(=O)[nH]2)cc1,inactive: 83%
16,CCc1ccc(NC(=O)CN2C(=O)CSC2=O)cc1,inactive: 98%
17,Cc1ccc(C(=O)c2cn(Cc3cccc(Cl)c3)c3nc(C)ccc3c2=O)cc1,inactive: 65%
18,CCCCNC(=O)c1nn(C)c2c1CSc1ccccc1-2,inactive: 79%
19,COc1ccc(NC(=O)c2ccco2)cc1NC(=O)COc1ccc(C)c(C)c1,inactive: 84%
20,C=CCN=C1SCC(=O)N1S(=O)(=O)c1ccc(C)cc1,inactive: 113%
